# The other results are listed elsewhere or left out.
# System: PfAP2-HC AP2 domain (GST-tagged)
# Assay: gcPBM binding intensity (ln(normalized median fluorescence intensity)); higher = stronger DNA binding
# In short: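 Each value is the highest Masliner-normalised natural-log median intensity across replicate spots of either orientation of a probe. The probes were primer-extended double-stranded 36-bp intergenic genomic sequences on an Agilent 4 × 180k array, alongside negative controls, exposed for 1 h to GST-tagged P. falciparum DNA-binding domains expressed in E. coli. Bound protein was picked up with Alexa488 anti-GST antibody and scanned at 488 nm.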
row,Sequence,gcPBM binding intensity (ln)
1,ATAAAATAACACAACGTTGACAAATTTGGATGACTC [XGTACX_negctrl_site324],10.1
2,ATATATGTAGATATATGTACATATATAGGTAGATAT [XGTACX_site7589],10.2
3,AAGGAAAAGTAAAGAAGTACTGTACCGCCAAAAAAA [XGTACX_site2607],9.7
4,AATTTATTTTTTTGATGTACATACAATTTATCACAA [XGTACX_site5936],9.71
5,TTGATGTTGGTAGGATGTACGGTACCGGTAGTATTT [XGTACX_site6642],9.68
6,AAAATAATAAAAAGGGGTACAAAGAAACAAATATAA [XGTACX_site296],9.82
7,TATGTGCATATAAACTCACACATTGTATATTACATG [CACACA_site6106],9.75
8,ATTTTAGAATTTAATACACACAAAAAAAAAAAATTA [CACACA_site3704],9.66
9,TATTACATTATATAAACATGCAAAACTATATATTAT [TGCATGCA_site601],9.61
10,AAAAATTTATTTAAAAGTACATAAAATAAAGGTGGA [XGTACX_site7591],9.7
11,ACTTTAGAAATAGAGGTGCTATTTTTATTACCACAC,9.71
12,TGCACAAAGTTATGCACACACCTAAAATTAATTTTT [CACACA_site7385],9.87
13,TATACACATATATACACACACATATATAAATAAATA [CACACA_site7579],10.2
14,TTATAATATGTATACACACACATATATAGATATATA [CACACA_site7159],9.87
15,ATTCTTTATATGCATACACACCTAATATAGGGACCT [CACACA_site6830],9.71
16,GTACATAGGTATAGCACACACAAATGTAGGTATTTT [CACACA_site4049],10.1
17,AAATGTAATATAAATAGTACATATTAAATAAAATTA [XGTACX_site6917],9.75
18,ATGTGCACATATAAAAGTACACGCACATATATATAT [XGTACX_site1238],9.81
19,AAGAATATTATAAACACACACTTTATAAAGAATTAT [CACACA_site4241],10.1
20,TATATAATTGTCTTCACACACACATATATATATATA [CACACA_site2744],10.2
21,TATTTTATTTGTATATTCATTTGTATAATATAAATA [TGCATGCA_negctrl_site267],9.52
22,AAAAAAAAAAAAAAAACACACATAAAAATATAATAA [CACACA_site3855],9.9
23,ATTATATATAATATAGTGCATGTAAAAAATAAAACA,9.95

row,Sequence,gcPBM binding intensity (ln)
1,AAAAATAAATTTATATATTACAAGAACAAATATAGT [XGTACX_negctrl_site567],9.73
2,GAATAAATAAGATACGTACACACATATACAAAATAT [CACACA_site3660],10.1
3,AAAAGGAAAGGAAAGGGTACAATCCTATTATATTAT [XGTACX_site8652],9.56
4,ATAATATAAACGTATACACACAAGAGAAGCATAAAG [CACACA_site2889],10.1
5,TTTTTTTAAAAAAAGGGTACATATATATATTTTTCT [XGTACX_site1066],9.5
6,TATATATCTATAAACACACACCAAAATTTGTGCTTT [CACACA_site7448],9.99
7,AAATAAAAAGAAAAGAAAAAGAAAATAAAAAGAGAA [XGTACX_negctrl_site14],10.1
8,ATAAAATGAACAAACACACACACATATATTTATATA [CACACA_site7181],10.4
9,ATATATATATATTATATGCACACGTTAAAATTTCAT [CACACA_site709],9.7
10,ATATACTTTAAAGGTTAAGAAAGAAAAAAAAAAAAA [CACACA_negctrl_site956],9.37
11,GTATTACATGAGGACACACACAAAAAAAATATATAT [CACACA_site769],10.8
12,TAATTATTTTAAAAAGTGCATTAAAAGATATTAAAT [GTGCAC_site9694],9.46
13,TTATTATAAAAATGTAGTACAATACTTTTTTTTTTT [XGTACX_site732],9.39
14,ATATGTATCTCATCGTGTACATGTATATAATATATA [XGTACX_site4139],9.68
15,ATATAGTAAAGTTATACACACATGAATTTTCCCATG [CACACA_site6923],9.94
16,TTAGAAAAATTATATATACACACTTATATTTATATA [CACACA_site2821],9.69
17,ATATATCAAAATAATTGTACAAATTTTATATAATTT [XGTACX_site7249],9.6
18,TTAAAAAGATGTCACTGTACATAAAACATAAAATAT [XGTACX_site2886],9.85
19,TAAACAGACATATAAACACACATACATACATACATA [CACACA_site7215],10.2
20,TTTCATGACAATGTTTGTACATAATAAAATATATTT [XGTACX_site7039],9.38
21,GAAGAGACTTAGAAAACACACATACATAAGATAATT [CACACA_site5333],9.87
22,AAAAAAAAAAAAAAAACACACATAAAACTATAATAA [CACACA_site7758],9.98

# Reference: the supplement of paper PMC11417369
